In patent publication US20260258107A1 (ELPISCIENCE SUZHOU BIOPHARMA, published 2026):
Each block holds one binder with its values, some of them ahead of it.

Columns and labels:
[1] = target: T1, HIS-tagged human IL-2Rβγ heterodimer (human, UniProt P14784 27-239; P31785 23-262, limits assumed); experiment: BLI (Octet Red 96), variant-Fc on AHC sensor, HIS-tagged IL-2Rβγ heterodimer as analyte, 1:1 fit
T1 construct: Analyte in solution in BLI; HIS-tagged; also called CD122/CD132
T1 sequence (looked up) 1: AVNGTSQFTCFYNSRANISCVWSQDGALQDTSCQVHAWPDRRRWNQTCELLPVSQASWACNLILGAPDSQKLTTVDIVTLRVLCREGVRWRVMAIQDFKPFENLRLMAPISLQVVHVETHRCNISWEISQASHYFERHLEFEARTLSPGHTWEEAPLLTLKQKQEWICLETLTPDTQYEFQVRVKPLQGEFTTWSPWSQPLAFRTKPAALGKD
T1 sequence (looked up) 2: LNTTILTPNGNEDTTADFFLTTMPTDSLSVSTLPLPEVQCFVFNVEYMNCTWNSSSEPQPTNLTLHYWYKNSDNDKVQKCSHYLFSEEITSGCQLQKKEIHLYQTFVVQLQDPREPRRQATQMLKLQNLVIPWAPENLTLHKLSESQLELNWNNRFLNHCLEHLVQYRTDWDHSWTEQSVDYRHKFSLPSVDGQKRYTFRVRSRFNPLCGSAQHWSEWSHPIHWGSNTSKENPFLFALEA
Procedure: (§1) The affinity of the IL2 variants to the IL-2Rβγheterodimer and the IL-2Rα-subunit was determined by Bio-Layer Interferometry (BLI) technology (Octet Red 96 system). Briefly, the IL2 variants with a concentration of 50 nM were loaded and immobilized on an AHC (Anti-hIgG Fc Capture) sensor until the signal reached 0.6 nm. The sensors were immersed in buffer until the signal returned to baseline. Subsequently, either the HIS-tagged human IL-2R a-subunit or the HIS-tagged human IL-2Rβγheterodimer was applied to the sensors as analytes at 30° C. in kinetics buffer (PALL, USA) in concentrations ranging from 100 nM down to 3.125 nM (1:2 dilution). The following conditions were applied: 90 s for association 300 s for dissociation and 6×5 s for regeneration with regeneration solution (10 mM Glycine, pH 1.5). The curves obtained were fitted with a 1:1 binding model.

[2] = target: T2, HIS-tagged human IL-2R α-subunit (human, UniProt P01589 22-213, limits assumed); experiment: BLI (Octet Red 96), variant-Fc on AHC sensor, HIS-tagged IL-2Rα as analyte, 1:1 fit
T2 construct: Analyte in solution in BLI; also called CD25; not shown: HIS tag
T2 sequence (looked up): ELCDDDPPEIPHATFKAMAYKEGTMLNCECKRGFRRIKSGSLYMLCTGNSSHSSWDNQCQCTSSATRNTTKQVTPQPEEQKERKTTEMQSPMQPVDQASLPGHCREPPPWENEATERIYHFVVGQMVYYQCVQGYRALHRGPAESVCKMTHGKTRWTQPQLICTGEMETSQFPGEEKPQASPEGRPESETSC
Procedure: as §1

[3] = target: T2, HIS-tagged human IL-2R α-subunit; experiment: BLI (Octet): variant-Fc captured on AHC sensor, HIS-tagged human IL2Rα (IL2R_a) as analyte
Procedure: as §1

[4] = target: T1, HIS-tagged human IL-2Rβγ heterodimer; experiment: BLI (Octet Red 96), variant-Fc on AHC sensor, HIS-tagged IL-2Rβγ heterodimer as analyte, 1:1 fit; remark: listed apart in the source
Procedure: as §1

[5] = target: T1, HIS-tagged human IL-2Rβγ heterodimer; experiment: BLI (Octet Red 96), variant-Fc on AHC sensor, HIS-tagged IL-2Rβγ heterodimer as analyte (up to 1000 nM), 1:1 fit
Procedure: as §1

B1: human wildtype IL2 fused to human IgG1-LALA Fc (Fc fusion)
chain: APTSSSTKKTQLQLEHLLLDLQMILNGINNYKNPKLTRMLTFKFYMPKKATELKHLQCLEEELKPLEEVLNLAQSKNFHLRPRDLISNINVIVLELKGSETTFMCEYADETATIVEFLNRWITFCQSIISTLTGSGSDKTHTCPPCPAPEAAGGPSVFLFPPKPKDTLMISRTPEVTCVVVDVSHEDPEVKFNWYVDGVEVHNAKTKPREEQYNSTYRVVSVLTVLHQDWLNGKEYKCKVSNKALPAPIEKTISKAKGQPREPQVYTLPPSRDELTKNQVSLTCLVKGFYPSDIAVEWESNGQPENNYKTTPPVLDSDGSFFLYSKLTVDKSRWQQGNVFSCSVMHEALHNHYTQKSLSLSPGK
notes: IL2 is at the N terminus of the Fc; also called IL2-WT
Kd [1]: < 0.001 nM
Kd [2]: 33.6 nM

B3: ESE01.029 fused to human IgG1-LALA Fc (Fc fusion)
chain: APTSSSTKKTQLQLEHLLLDLQMILNGINNYKNPKLTEMLTQQFYMPKEATELKHLQCLEEELKPLEEVLNLAQSKNFHLRPRDLISNINAIVLELKGSETTFMCEYADETATIVEFLNRWITFVQSIISTLTGSGS[human IgG1 Fc with changes left out here]
notes: ESE01.019 plus V91A
Kd [4]: 1.03 nM

B5: ESE01.020 fused to human IgG1-LALA Fc (Fc fusion)
chain: APTSSSTKKTQLQLEHLLLDLQMILNGTNNYKNPKLTEMLTFRFYMPKKATELKHLQCLEEELKPLEEVLNLAQSKNFHLRPRDLISNINVIVLELKGSETTFMCEYADETATIVEFLNRWITFVQSIISTLTGSGS[human IgG1 Fc with changes left out here]
notes: I28T, R38E, K43R, C125V
Kd [4]: < 0.001 nM

B6: ESE01.018 fused to human IgG1-LALA Fc (Fc fusion)
chain: APTSSSTKKTQLQLEHLLLDLQMILNGINNYKNPKLTDMLTQGFYMPKKATELKHLQCLEEELMPLEEVLNLAQSKNFHLRPRDLISNINVIVLELKGSETTFMCEYADETATIVEFLNRWITFVQSIISTLTGSGS[human IgG1 Fc with changes left out here]
notes: Printed positions count on the mature protein: entry position = printed + 20
Kd [4]: < 0.001 nM

B8: ESE01.028 fused to human IgG1-LALA Fc (Fc fusion)
chain: APTSSSTKKTQLQLEHLLLDLQMILNGINNYKNPKLTEMLTQQFYMPKEATELKHLQCLEEELKPLEEVLNLAQSKNFHLRPRDLISNINDIVLELKGSETTFMCEYADETATIVEFLNRWITFVQSIISTLTGSGS[human IgG1 Fc with changes left out here]
notes: ESE01.019 plus V91D
Kd [5]: 21.1 nM

B9: ESE01.016 fused to human IgG1-LALA Fc (Fc fusion)
chain: APTSSSTRKTQLQLEHLLLDLQMILNGINNYKNPKLTTMLTEPFYMPKKATELKHLQCLEEGLKPLEAVLNLAQSKNFHLRPRDLISNINVIVLELKGSETTFMCEYADETATIVEFLNRWITFVQSIISTLTGSGS[human IgG1 Fc with changes left out here]
notes: as for B6
Kd [4]: < 0.001 nM

B13: ESE01.030 fused to human IgG1-LALA Fc (Fc fusion)
chain: APTSSSTKKTQLQLEHLLLDLQMILNGINNYKNPKLTEMLTQQFYMPKEATELKHLQCLEEELKPLEEVLNLAQSKNFHLRPRDLISNINEIVLELKGSETTFMCEYADETATIVEFLNRWITFVQSIISTLTGSGS[human IgG1 Fc with changes left out here]
notes: ESE01.019 plus V91E
Kd [4]: 1.51 nM

B14: ESE01.019 fused to human IgG1-LALA Fc (Fc fusion)
chain: APTSSSTKKTQLQLEHLLLDLQMILNGINNYKNPKLTEMLTQQFYMPKEATELKHLQCLEEELKPLEEVLNLAQSKNFHLRPRDLISNINVIVLELKGSETTFMCEYADETATIVEFLNRWITFVQSIISTLTGSGS[human IgG1 Fc with changes left out here]
notes: R38E, F42Q, K43Q, K49E, C125V
Kd [4]: < 0.001 nM

B18: ESE01.017 fused to human IgG1-LALA Fc (Fc fusion)
chain: APTSSSTKKTQLQLEHLLLDLQMILNGINNYKNPKLTRMLTHQFYMPKKATELKHLQCLEEELKPLEEVLNLAQSKNFHLRPRDLISNINVIVLELKGSETTFMCEYADETATIVEFLNRWITFVQSIISTLTGSGS[human IgG1 Fc with changes left out here]
notes: as for B6
Kd [4]: 0.0156 nM

B21: ESE01.031 fused to human IgG1-LALA Fc (Fc fusion)
chain: APTSSSTKKTQLQLEHLLLDLQMILNGINNYKNPKLTEMLTQQFYMPKEATELKHLQCLEEELKPLEEVLNLAQSKNFHLRPRDLISNINVTVLELKGSETTFMCEYADETATIVEFLNRWITFVQSIISTLTGSGS[human IgG1 Fc with changes left out here]
notes: ESE01.019 plus I92T
Kd [4]: 1.26 nM

The next lines start with the values.

binding result [3]: no binding
Kd [4]: < 0.001 nM
B2: ESE01.010 fused to human IgG1-LALA Fc (Fc fusion)
chain: APTSSSTKKTQLQLEHLLLDLQMILNGINNYKNPKLTAMLTEGFYMPKKATELKHLQCLEEELKPLEEVLNLAQSKNFHLRPRDLISNINVIVLELKGSETTFMCEYADETATIVEFLNRWITFVQSIISTLTGSGS[human IgG1 Fc with changes left out here]
notes: as for B6

binding result [3]: no binding
Kd [4]: 0.44 nM
B4: ESE01.006 fused to human IgG1-LALA Fc (Fc fusion)
chain: APTSSSTKKTQLQLEHLLLDLQMILNGINNYKNPKLTQMLTRSFYMPKKATELKHLQCLEEELKPLEVVLNLAQSKNFHLRPRDLISNINVIVLELKGSETTFMCEYADETATIVEFLNRWITFVQSIISTLTGSGS[human IgG1 Fc with changes left out here]

Kd [5]: 6.5 nM
B7: ESE01.036 fused to human IgG1-LALA Fc (Fc fusion)
chain: APTSSSTKKTQLQLEHLLLDLQMILNGINNYKNPKLTEMLTQQFYMPKEATELKHLQCLEEELKPLEEVLNLAQSKNFHLRPRDLISNINATVLELKGSETTFMCEYADETATIVEFLNRWITFVQSIISTLTGSGS[human IgG1 Fc with changes left out here]
notes: ESE01.019 plus V91A, I92T

binding result [3]: no binding
Kd [4]: 0.0317 nM
B10: IL2-3X (ESE01.004) fused to human IgG1-LALA Fc (Fc fusion)
chain: APTSSSTKKTQLQLEHLLLDLQMILNGINNYKNPKLTDMLTFEFYMPKKATELKHLQCLERELKPLEEVLNLAQSKNFHLRPRDLISNINVIVLELKGSETTFMCEYADETATIVEFLNRWITFVQSIISTLTGSGS[human IgG1 Fc with changes left out here]
notes: R38D, K43E, E61R and C125V

Kd [5]: 35.6 nM
B11: ESE01.034 fused to human IgG1-LALA Fc (Fc fusion)
chain: APTSSSTKKTQLQLEHLLLDLQMILNGINNYKNPKLTEMLTQQFYMPKEATELKHLQCLEEELKPLEEVLNLAQSKNFHLRPRDLISDINEIVLELKGSETTFMCEYADETATIVEFLNRWITFVQSIISTLTGSGS[human IgG1 Fc with changes left out here]
notes: ESE01.019 plus N88D, V91E

Kd [5]: 39 nM
B12: ESE01.035 fused to human IgG1-LALA Fc (Fc fusion)
chain: APTSSSTKKTQLQLEHLLLDLQMILNGINNYKNPKLTEMLTQQFYMPKEATELKHLQCLEEELKPLEEVLNLAQSKNFHLRPRDLISNINDTVLELKGSETTFMCEYADETATIVEFLNRWITFVQSIISTLTGSGS[human IgG1 Fc with changes left out here]
notes: ESE01.019 plus V91D, I92T

binding result [3]: no binding
Kd [4]: 0.0283 nM
B15: ESE01.008 fused to human IgG1-LALA Fc (Fc fusion)
chain: APTSSSTKKTQLQLEHLLLDLQMILNGINNYKNPKLTEMLTFKFYMPKKATELKHLQCLEETLKPLESVLNKAQSKNFHLRPRDLISNINVIVLELKGSETTFMCEYADETATIVEFLNRWITFVQSIISTLTGSGS[human IgG1 Fc with changes left out here]
notes: as for B6

Kd [5]: 17.3 nM
B16: ESE01.037 fused to human IgG1-LALA Fc (Fc fusion)
chain: APTSSSTKKTQLQLEHLLLDLQMILNGINNYKNPKLTEMLTQQFYMPKEATELKHLQCLEEELKPLEEVLNLAQSKNFHLRPRDLISNINETVLELKGSETTFMCEYADETATIVEFLNRWITFVQSIISTLTGSGS[human IgG1 Fc with changes left out here]
notes: ESE01.019 plus V91E, I92T

Kd [4]: < 0.001 nM
B17: ESE01.042 fused to human IgG1-LALA Fc (Fc fusion)
chain: APTSSSTKKTQLQLEHLLLDLQMILNGINNYKNPKLTEMLTQQFYMPKKATELKHLQCLEEELKPLEEVLNLAQSKNFHLRPRDLISNINVIVLELKGSETTFMCEYADETATIVEFLNRWITFVQSIISTLTGSGS[human IgG1 Fc with changes left out here]

Kd [1]: < 0.001 nM
Kd [2]: 36.5 nM
Kd [4]: < 0.001 nM
B19: IL[…]V fused to human IgG1-LALA Fc (Fc fusion)
chain: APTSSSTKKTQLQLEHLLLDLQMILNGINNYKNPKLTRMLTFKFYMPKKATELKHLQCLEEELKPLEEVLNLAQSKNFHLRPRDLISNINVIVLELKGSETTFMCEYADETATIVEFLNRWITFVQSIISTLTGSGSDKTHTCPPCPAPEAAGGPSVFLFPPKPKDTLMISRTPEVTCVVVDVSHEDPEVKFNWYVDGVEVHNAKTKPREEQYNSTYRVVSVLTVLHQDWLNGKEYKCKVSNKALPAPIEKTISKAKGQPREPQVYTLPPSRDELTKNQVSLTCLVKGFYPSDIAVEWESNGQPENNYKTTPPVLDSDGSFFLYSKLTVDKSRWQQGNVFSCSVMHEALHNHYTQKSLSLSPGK
notes: Signal peptide (residues 1-20 of the entry) left out

Kd [5]: 20.6 nM
B20: ESE01.033 fused to human IgG1-LALA Fc (Fc fusion)
chain: APTSSSTKKTQLQLEHLLLDLQMILNGINNYKNPKLTEMLTQQFYMPKEATELKHLQCLEEELKPLEEVLNLAQSKNFHLRPRDLISDINAIVLELKGSETTFMCEYADETATIVEFLNRWITFVQSIISTLTGSGS[human IgG1 Fc with changes left out here]
notes: ESE01.019 plus N88D, V91A
